Experimental data published in PubChem BioAssay AID1508624 (National Center for Advancing Translational Sciences (NCATS), 2021).
In all, about 48,000 compounds went through this assay and about 120 (0.25%) were called active. Roughly 4% stayed inconclusive and do not appear here. The call rests on the fitted dose curve; in most records, active means well fitted activation curve with a large enough effect; inconclusive means small, poorly fitted or top-dose-only effect, or another doubt; inactive means no such curve, though single readings can be large or run the other way. The list shows a part of the results.

test: Primary qHTS for Identification of Small Molecule Activators of Huntingtin-Antisense Promoter Activity; conditions: HEK293 HTT-AS promoter firefly luciferase reporter (activity 0% = vehicle and -100% = no light), 24 h; series mostly up to 57.5 µM; activity change, positive = activation: at the top concentration; further: nearly all actives have a fitted effect of over 55% in size
Summary of the method: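 Quantitative HTS used concentration series of up to 57.5 uM final on HEK293 luciferase reporter cells, 24 h at 37 degrees C. Readout was Dual-Glo firefly luminescence.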

Activity change, positive = activation, inactive:
Cc1ccc(-c2noc(CN(C3CCCCC3)S(=O)(=O)c3ccc(C)cc3)n2)cc1 -27.3%
Cc1nn(-c2ccc3nncn3n2)c(C)c1CCC(=O)Nc1ccc(OC(F)(F)F)cc1 -15.3%
Cc1ccccc1CNC(=O)c1ccc(-n2c(C)cc3c2CCCC3)cc1 -2.71%
CO[C@H]1C=CC=C(C)C(=O)NC2=CC(=O)C(NCCN(C)C)=C(C[C@@H](C)C[C@H](OC)[C@@H](O)[C@@H](C)C=C(C)[C@@H]1OC(N)=O)C2=O -91.7%
C#C[C@]1(O)CC[C@H]2[C@@H]3CCc4cc(OC)ccc4[C@H]3CC[C@@]21C 5.21%
COc1ccccc1CNC(=O)C1CCN(Cc2nc(-c3ccc(OC)c(OC)c3)oc2C)CC1 -22.7%
CCCCN(C)CCNC(=O)c1cc(-c2cccnc2)nc2ccc(S(=O)(=O)N3CCC(C)CC3)cc12 -3.53%
Cc1ccn2c(c1)nc(=O)c1cc(S(=O)(=O)N3CCC(C)CC3)c(Cl)cc12 -2.26%
CN(C)C(=O)c1ccc(S(=O)(=O)c2ccc(NC(=O)[C@@](C)(O)C(F)(F)F)c(Cl)c2)cc1 -51%
CN(Cc1ccccc1)c1nc(-c2ccc(F)cc2)cc(C(F)(F)F)n1 -12.6%
O=C(COc1ccccc1F)Nc1ccc(C(=O)OCc2cc(=O)n3nc(C4CC4)sc3n2)cc1 9.98%
Cc1ccc(NC(=O)CCSCCc2ccccn2)cc1 -12.5%
Cc1ccc(-c2cc3ncc(C(=O)c4cc([N+](=O)[O-])ccc4O)cn3n2)cc1 -28.9%
CCc1ccc(-n2c(C)nnc2SCc2nc(-c3ccc(OC)cc3)no2)cc1 -27.6%
O=C(Nc1ccc(Cl)cc1Cl)c1cc(S(=O)(=O)N2CCN(c3ccccc3F)CC2)ccc1F -13.7%
CC1=C(C)C(=O)C(CCCCC#CCCCC#CCO)=C(C)C1=O -30.4%
COc1ccc(Br)cc1CNC(=O)CCCn1c(=O)c2cccn2c2ccccc21 -37.6%
CCC(C(=O)Nc1cccc(-c2cn3cccnc3n2)c1)c1ccccc1 (stereo not given) -0.949%
CCC(Oc1ccccc1F)C(=O)Nc1c(C(=O)c2ccccc2)oc2ccccc12 (stereo not given) -12.4%
O=C(Nc1ccc(Cl)cc1)C1CCN(c2nc3ccccc3n3cccc23)CC1 -21.6%
CC(C)(C)OC(=O)N1CCC(c2c(C(=O)NCc3ccc4c(c3)OCO4)cnn2-c2ccc(F)cc2F)CC1 -25.1%
COc1ccc(CNC(=O)c2ccc3c(c2)N(Cc2ccccc2)C(=O)c2ccccc2S3(=O)=O)cc1 -7.59%
COc1ccc(-c2cc3nc(C4CCN(C(=O)OC(C)(C)C)CC4)c(C(=O)Nc4cc(Cl)cc(Cl)c4)cn3n2)cc1 -19.6%
CCOc1ccccc1N(C)C(=O)c1nn(-c2ccc(C)cc2)c(=O)c2c1c1ccccc1n2C 1.83%
COc1cc(C=O)ccc1O -0.705%
COc1ccc(OC)c(NC(=O)c2csnn2)c1 2.37%
CCOc1ccccc1-c1nnc(SCc2ccc(Cl)cc2)o1 -9.61%
COCCCNC(=O)c1cc(-c2cccnc2)nc2ccccc12 -9.45%
COc1ccc(-n2c(SCC(=O)N3CCC(C)CC3)nc3c([nH]c4ccccc43)c2=O)cc1 -11.6%
CC1=C(C(=O)Nc2ccc(C)cc2C)C(c2sccc2C)n2ncnc2N1 (stereo not given) -18.5%
COc1ccc2cccc(CCNC(C)=O)c2c1 1.36%
CCOc1cccc(C2c3c(oc4ccccc4c3=O)C(=O)N2c2nc(C)c(C(=O)OC)s2)c1 (stereo not given) -11.2%
Cc1ccc2occ(CC(=O)Nc3nnc(C(C)C)s3)c2c1 -16.4%
O=C(Nc1nnc(S(=O)(=O)N2CCCc3ccccc32)s1)c1ccccc1Br -20.1%
CCCN(CCC)C(=O)Cn1c(=O)n(Cc2ccc(C(=O)NCCc3ccc(OC)c(OC)c3)cc2)c(=O)c2ccccc21 -16.3%
CCCN(C(=O)c1cc2c(Cl)nc3ccccc3c2s1)c1cccc(C)c1 -21.7%
COCCNC(=O)c1ccc(Cn2c(SCC(=O)NC(C)C)nc3ccccc3c2=O)cc1 -17.2%
CCOc1cc(CNc2ccc(O)cc2)cc(Br)c1OCc1ccccc1 -43.4%
COc1ccc(CNC(=O)CCCn2c(SCC(N)=O)nc3cc4c(cc3c2=O)OCO4)cc1 -18.4%
Cc1cc(Nc2cccc(Cl)c2C)n2nc(Cc3ccccc3)nc2n1 -25.5%
CCN(CC)C(=O)CSc1nc2cc3c(cc2c(=O)n1Cc1ccc(C(=O)NCCc2ccc(OC)c(OC)c2)cc1)OCO3 -10.2%
CCOc1ccccc1NC(=O)Cn1c(=O)n(Cc2ccccc2)c(=O)c2c(C)c(C(=O)N(C)C)sc21 -9.12%
COc1cc(Cl)c(C)cc1NC(=O)c1cn(CC(C)C)c(=O)c2cc(OC)c(OC)cc12 -3.58%
CC(C)OCCCNC(=O)CCCn1c(SCC(=O)c2ccc(Br)cc2)nc2c(sc3ccccc32)c1=O -1.71%
COc1ccc(CNC(=O)c2cnn3c(C)c(Cc4ccc(F)cc4)c(C)nc23)cc1 0.66%
CC(NC(=O)c1ccccc1)c1nc2ccccc2n1Cc1ccc(Cl)cc1 (stereo not given) -10.6%
Cc1cc(C)c(NC(=O)Cn2c(=O)n(CCCCC(=O)NCc3ccccc3Cl)c(=O)c3ccccc32)c(C)c1 -9.66%
COc1cc(CN(CC2CCCO2)C(=O)c2ccccc2F)cc(OC)c1OC (stereo not given) -4.26%
Cc1ccc(-n2ncc(C(=O)Nc3ccc(C)c(F)c3)c2C2CCN(C(=O)OC(C)(C)C)CC2)cc1C -10.1%
CCOc1cc(C2c3c(oc4ccccc4c3=O)C(=O)N2Cc2ccc3c(c2)OCO3)ccc1O (stereo not given) -2.13%
Cc1ccc(CNC(=O)CCCCn2c(=O)c3ccccc3n(Cc3ccc(Cl)cc3)c2=O)cc1 -10.3%
Cc1nc2sc(C(=O)NCc3ccc(Cl)cc3)c(NC(=O)c3ccccc3)c2c(C)c1C -44%
CCC(C(=O)OCc1cc(=O)n2nc(CCOC)sc2n1)c1ccccc1 (stereo not given) -16.5%
Cc1ccccc1NC(=O)c1nc(-c2ccncc2)no1 4.72%
COc1cccc(N2CCN(c3nc4ccc(C(=O)c5ccccc5)cc4n4c(C)nnc34)CC2)c1 -4.77%
Cc1ccc(NC(=O)Cn2c(CCC(=O)O)ccc2-c2cccs2)cc1 -30.5%
Cc1ccc(-c2cn3c(n2)sc2cc(C(=O)N4CCCCC4)ccc23)cc1 -15.4%
Cc1cc(C)c2c(=O)cc(C(=O)Nc3ccc(S(=O)(=O)Nc4nc(C)cc(C)n4)cc3)oc2c1 -5.44%
CN(C)CC(=O)N1CCC(c2ccc(NC(=O)c3ncc(C#N)[nH]3)c(C3=CCCCC3)c2)CC1 -19.8%
COC(=O)C(C)Sc1nc2c([nH]c3ccccc32)c(=O)n1-c1ccc(OC)cc1 (stereo not given) -18.2%
O=C(Nc1ccc2nc(SCC(=O)N3CCCC3)sc2c1)c1ccc(F)cc1 -18%
N#Cc1ccc(-c2cccs2)nc1SCc1ccc(Cl)cc1Cl 19.1%
CCc1ccccc1NC(=O)CSc1nnc(-c2nonc2NC(C)=O)n1C -4.49%
Cc1ccnc(NC(c2ccccc2F)c2ccc3cccnc3c2O)c1 (stereo not given) -48.7%
Cc1ccc(Cl)cc1Nc1nc2ccccc2n2c(C)nnc12 -4.48%
CCCOc1ccccc1Cn1c(=O)sc2ccccc21 -13.7%
CN(CCOc1ccc(NS(C)(=O)=O)cc1)CCc1ccc(NS(C)(=O)=O)cc1
Cc1cc(NS(=O)(=O)c2ccc(NC(=O)COc3ccc(Br)cc3C)cc2)no1 -24%
CCCCc1nn2c(=O)cc(COC(=O)c3ccccc3NC(=O)C(C)(C)C)nc2s1 -0.839%
Cc1[nH]c(=O)[nH]c(=O)c1C1N2CC3(C(C)C)CN1CC(C(C)C)(C2)C3=O (stereo not given) 11.2%
CCOC(=O)c1ccc(NC(=O)CN2C(=O)c3cccnc3Oc3ccc(Cl)cc32)cc1 -17.5%
Cc1ccc(N2CCn3c2nc2c3c(=O)n(CCc3ccccc3)c(=O)n2C)cc1C -2.55%
Cc1ccc(Cl)cc1NC(=O)Cn1nc2c(cc1=O)CC(C)CC2 (stereo not given) -5.84%
Cc1ccc(OCCSc2nc3ccccc3n2CC(=O)N2CCOCC2)c(C)c1 -23.8%
CCOc1ccc(NC(=O)CN2C(=O)COc3ccc(S(=O)(=O)Nc4ccccc4)cc32)cc1 -14.8%
COc1ccc(C(=O)Nc2ccc3nc4n(c(=O)c3c2)CCCCC4)cc1OC -2.02%
CCC(=O)N1CCc2cc(Br)cc(S(=O)(=O)N3CCC(C(=O)NC(C)(C)C)CC3)c21 -0.765%
O=C(NNc1ncnc2c1cnn2-c1ccccc1)c1cccc(Cl)c1 -1.91%
CC(C)Cn1c(=O)c2ccccc2n2c(-c3cccc(Cl)c3)nnc12 20.8%
COc1ccc(Cl)c(Cn2c(NCCN)nc3c2c(=O)n(C)c(=O)n3C)c1 17%
COc1ccc(C(=O)NCc2nnnn2-c2ccc(C)c(C)c2)cc1 -14.8%
CCN(CC)CCn1c(=O)c(Cc2ccc(OC)cc2)nc2ccccc21 -7.52%
Fc1ccccc1N1CCN(c2nnc(C(F)(F)F)c3nnn(Cc4ccccc4)c23)CC1 -5.86%
O=C(Cn1c(SCCOc2ccccc2Cl)nc2ccccc21)N1CCOCC1 -8.15%
COc1ccc2c(CNCc3ccco3)c(C(=O)O)n(Cc3ccc(F)cc3Cl)c2c1 -18%
COc1ccc(CCNc2ncnc3c2nnn3C)cc1OC -10.6%
CCc1ccc(NC(=O)CSc2nc(-c3ccccc3)no2)cc1 16.7%
CN(C)S(=O)(=O)N(CC(=O)Nc1ccc(Br)cc1F)c1ccccc1 -17%
CCC(C)NS(=O)(=O)c1ccc(N2CCCCS2(=O)=O)cc1 (stereo not given) -26.7%
COc1ccc(C)cc1NC(=O)C1CCCN(S(=O)(=O)c2ccc3c(c2)CCCN3C(C)=O)C1 (stereo not given) -27.6%
COc1cccc2c1cc1c(=O)n(CC(=O)N3CCCCC3)nc(C)n12 -7.65%
Cc1ccc(C(=O)Nc2ccc(C(=O)O)cc2)cc1S(=O)(=O)Nc1ccccc1 3.32%
Cc1ccc(-n2c3c(c(=O)[nH]c2=O)C(NS(=O)(=O)c2ccc(Cl)cc2)(C(F)(F)F)C(=O)N3)cc1 (stereo not given) -17.2%
NC(=O)C1CCN(c2ncnc3c2cnn3-c2ccccc2)CC1 -32.2%
O=c1c2oc3ccccc3c2n(Cc2ccc(Cl)cc2)c(=O)n1Cc1ccc2c(c1)OCO2 -22%
